# Measurements taken from PubChem BioAssay AID1362 (SRMLSC, 2008).
# Some of the results follow. Shown are side measurements of this screen, not its main read-out; they come without a call. Compounds called inactive in the main read-out are mostly missing here.
# Experiment: growth inhibition of WT strain, primary screen, mitochondrial fusion inhibitor project, WT and mutant strains, chemical genetic (AID 1362); further: tested in S. cerevisiae
# Conditions: mitochondrial fusion phenotypic screen, at 10 µM
row,SMILES,inhibition
1,COc1cccc(-c2nc(-c3ccccc3)nc(N3CCN(C)CC3)c2C#N)c1,71.6%
2,Cc1ccc(S(=O)(=O)Nc2cccc3ncccc23)s1,70.2%
3,CC(C)(C)c1ccccc1NC(=S)NC1CCCCC1,63.3%
4,S=C(Nc1ccc(Oc2ccccc2)cc1)NC1CCCC1,44.4%
5,CN(C)CCNC(=O)COc1ccc(C23CC4CC(CC(C4)C2)C3)cc1,94.8%
6,COc1cc2c(C(=O)NCc3ccc(C)o3)cn(CC(C)C)c(=O)c2cc1OC,1.77%
7,Cc1cccnc1NC(=S)NCCc1ccccc1,58.7%
8,O=C1C=C(NC(=O)Nc2ccc(Cl)c(Cl)c2)CCC1,67.2%
9,C=CCSc1nnc(NC(=O)COc2ccc3ccccc3c2)s1,-13.2%
10,CC(C)(C)c1ccc(C(=O)NC(=S)NNC(=O)c2cccs2)cc1,73.8%
11,O=C(Nc1nc(-c2cccs2)cs1)c1ccc(Cl)cc1,30.3%
12,CC(C)C(=O)N1CCC(CN=Cc2c(O)n(C3CCCCC3)c(=O)n(C3CCCCC3)c2=O)CC1,16.6%
13,CSCc1nnc(NC(=O)c2ccc(S(=O)(=O)N(CC(C)C)CC(C)C)cc2)o1,11%
14,COc1cc(C2NCC(c3ccc(Cl)cc3Cl)c3c2[nH]c2ccccc32)cc(OC)c1OC (stereo not given),48.7%
15,S=C1NCCc2ccccc2C1c1ccccc1Cl (stereo not given),45.5%
16,Nc1c(-c2ccccc2)c(CSc2nc3ccccc3[nH]2)nn1-c1ccc(Cl)cc1,24.8%
17,CC(C)c1ccc(C2CC(c3ccc(Br)cc3)=NN2C(N)=S)cc1 (stereo not given),54%
18,FC(F)(F)c1cc(-c2ccccc2)nc(NC2CCCC2)n1,50.3%
19,O=[N+]([O-])c1ccc(-c2csc3[n+]2CCS3)cc1,67.3%
20,Cc1cc(N/N=C/c2ccc(Cl)cc2Cl)nc(NCc2ccccc2)n1,81%
21,Nn1c(Cc2cccc3ccccc23)nnc1SCCOc1ccc(Br)cc1,57.9%
22,Cc1ccc(NC(=O)c2cc(C)n(-c3cccc(C)c3)c2C)cc1,21.4%
23,CCCCn1c(-c2csc(CCC)c2)n[nH]c1=S,60%
24,CCOc1ccccc1NC(=O)C(OC(=O)c1ccc(O)cc1)c1ccccc1 (stereo not given),25.8%

row,SMILES,inhibition
1,CCCCn1c(-c2csc(CC)c2)n[nH]c1=S,55.8%
2,COC(=O)C1CCN(C(=O)c2cc(OC)c(OC)c(OC)c2)CC1,19.6%
3,O/N=C/c1cc(Br)cc(Br)c1OCc1ccccc1,28.8%
4,C=C1/C(=C\C=C2/CCC[C@]3(C)[C@@H]([C@H](C)CCCC(C)(C)O)CC[C@@H]23)C[C@@H](O)C[C@@H]1O,30.1%
5,Cn1ccnc1SCC(=O)c1ccc(Br)cc1,23.5%
6,O=C(CNC(=S)N(Cc1ccccc1)Cc1cccs1)NCc1ccc(F)cc1,7.5%
7,Cc1ccccc1CS(=O)(=O)c1nnc([C@H](CC(C)C)NC(=O)OC(C)(C)C)o1,68.9%
8,CSC(=S)N/N=C/c1ccc(Br)cc1,23.6%
9,O=S(Cc1ccc(Br)cc1)Cc1nnc(SCc2c(F)cccc2Cl)n1-c1ccccc1 (stereo not given),-6.26%
10,Cc1cccc(OCCCSc2nc3ccc(C)cc3[nH]2)c1,48.4%
11,CCN1CCN(CCNC(=O)c2ccc(/C=C3\Sc4ccccc4N(Cc4ccccc4F)C3=O)cc2)CC1,8.53%
12,CCOc1ccc(Nc2nc(N3CCCCC3)nc(N3CCCCC3)n2)cc1,21.4%
13,Clc1ccc(Oc2cccc(/C=N/n3cnnc3)c2)cc1,54.3%
14,COc1ccccc1CNC(=S)NCCc1ccccc1,57.7%
15,CCOC(=O)/C(=C\c1cccnc1)C(=O)c1cc(C(C)=O)c(Nc2ccccc2)s1,33.8%
16,CC(=O)c1ccc(NC(=S)NC(C)c2ccc(Cl)cc2Cl)cc1 (stereo not given),78.9%
17,Cc1nc(NC(C)c2ccccc2)c2oc3ccccc3c2n1 (stereo not given),56.2%
18,CCC1=NN2C(=N)/C(=C\c3cccn3-c3ccc(C)cc3C)C(=O)N=C2S1,16.1%
19,O=C(NC(=S)NCCC1=CCCCC1)c1ccccc1Br,3.54%
20,CCCCCOc1ccc(CSc2n[nH]c(C)n2)cc1,78.3%
21,O=C(Cc1cn(Cc2cccc(Cl)c2)c2ccccc12)N1CCCCCC1,22.8%
22,Cc1cc2c3c(c1)C1(SCC(=O)N1c1ccc(F)cc1)C(=O)N3C(C)(C)CC2C (stereo not given),10.1%
23,C/C(=N\NC(=S)NCc1ccccc1)c1ccc(C(C)(C)C)cc1,39.2%
24,CCC1C(c2ccccc2)N(C)C(c2ccccc2)CC1(O)c1ccccc1 (stereo not given),64.5%

row,SMILES,inhibition
1,COC(=O)c1c(NC(NC(=O)C(C)C)C(Cl)(Cl)Cl)sc2c1CCCC2 (stereo not given),58.7%
2,Cc1cc(C)c2nc(NNC(=O)c3cc(-c4cccs4)nc4ccccc34)sc2c1,46.6%
3,O=C(NC(=S)Nc1ccc(Cl)cn1)C(c1ccccc1)c1ccccc1,67.1%
4,CC1=CC(C)(C)N(S(=O)(=O)c2ccc(C)cc2)c2ccc(C)cc21,15%
5,O=C(OC(c1ccc(NS(=O)(=O)c2ccccc2)cc1)(C(F)(F)F)C(F)(F)F)c1ccccc1,-9.15%
6,Cn1c(Cc2ccccc2)nnc1SCC(=O)c1ccc(Br)s1,6.12%
7,O=C(COc1ccccc1-c1ccccc1)NCc1cccc(Cl)c1,24.9%
8,COc1ccc(S(=O)(=O)NCCSCc2cccc(C)c2)cc1Br,18.9%
9,COc1ccccc1Nc1ncnc2nc[nH]c12,9.22%
10,S=c1nc2ccccc2c2nc(-c3ccccc3)[nH]n12,67%
11,Cc1ccccc1CSCCNC(=S)Nc1ccccc1,66.7%
12,O=c1[nH]c(-c2ccccn2)nc2sc(-c3ccccc3)cc12,64.7%
13,Cc1cccc(NC(=S)N/N=C2/CCCCc3ccccc32)c1,51.9%
14,CCOC(=O)N1CCN(C(=O)CN(C)S(=O)(=O)c2ccc3c(c2)C(C)(C)C(=O)N3C)CC1,-0.52%
15,Cc1ccc(Nc2nc(N)c([N+](=O)[O-])c(N3CCC(C)CC3)n2)cc1C,67.7%
16,Cc1ccc2nc(N(CCCN(C)C)C(=O)c3ccc(Br)s3)sc2c1,88.6%
17,CC(C)Cn1c(-c2csc(C(C)C)c2)n[nH]c1=S,48.3%
18,NC(=S)n1[nH]c(-c2ccc([N+](=O)[O-])cc2)c(N=Nc2cccc(Cl)c2)c1=O,29.8%
19,Nc1ccccc1Nc1cc(-c2cccc(Cl)c2)nn1-c1ccccc1,27.3%
20,O=C(NC1=C(Nc2ccc(Cl)cc2)C(=O)c2ccccc2C1=O)c1ccccc1,61.1%
21,c1ccc(Cn2c(CNc3nc4ccccc4n3CCN3CCCCC3)nc3ccccc32)cc1,8.83%
22,CC(C)(C)n1nnnc1C(c1cccs1)N(Cc1cccnc1)Cc1ccccc1Cl (stereo not given),-2.11%
